Source: article PMC7215714, “Para-Halogenation of Amphetamine and Methcathinone Increases the Mitochondrial Toxicity in Undifferentiated and Differentiated SH-SY5Y Cells” (International Journal of Molecular Sciences, 2020)

Legend:
[1] = system: undifferentiated and differentiated SH-SY5Y cells; assay: Cell membrane integrity, adenylate kinase (AK) release (ToxiLight); assay type: cell-based, human; settings: for IC50: read-out: MT (IC50), membrane toxicity; for Concentration at which significantly membrane toxic: undifferentiated SH-SY5Y
[2] = system: caspases 3 and 9 in SH-SY5Y cells; assay: Western blotting of cleaved caspase 3 and 9; assay type: cell-based, human; settings: 2000 μM, 6 h, both undifferentiated and differentiated SH-SY5Y cells
[3] = system: undifferentiated and differentiated SH-SY5Y cells; assay: Mitochondrial membrane potential (JC-1 staining); assay type: cell-based, human; settings: for Effect on Δψm / Δψm: not toxic up to: both cell models; for Effect on Δψm / Δψm: not toxic up to / Concentration starting to decrease Δψm: 24 h
[4] = system: undifferentiated and differentiated SH-SY5Y cells; assay: Annexin V/propidium iodide staining (apoptosis/necrosis, flow cytometry); assay type: cell-based, human
[5] = system: undifferentiated and differentiated SH-SY5Y cells; assay: Mitochondrial superoxide production (MitoSOX Red); assay type: cell-based, human; settings: for Concentration at which mitochondrial superoxide production started to increase: 24 h
[6] = system: undifferentiated and differentiated SH-SY5Y cells; assay: Cellular oxygen consumption (Seahorse XF96); settings: for Effect on oxidative metabolism: SH-SY5Y cells
[7] = system: undifferentiated and differentiated SH-SY5Y cells; assay: Intracellular ATP content (CellTiter-Glo); assay type: cell-based, human; settings: for Intracellular ATP content: no toxicity up to: undifferentiated and differentiated SH-SY5Y cells
[8] = differentiated (diff) SH-SY5Y cells, 24 h
[9] = undifferentiated (und) SH-SY5Y cells, 24 h
[10] = differentiated SH-SY5Y cells, 6 h
[11] = undifferentiated SH-SY5Y cells, 6 h
[12] = differentiated (diff) SH-SY5Y cells, 24 h, read-out: ATP (IC50), ATP depletion
[13] = undifferentiated (und) SH-SY5Y cells, 24 h, read-out: ATP (IC50), ATP depletion
[14] = Homo sapiens, SH-SY5Y, 24 h, differentiated (diff) SH-SY5Y cells, 24 h
[15] = Homo sapiens, SH-SY5Y, 24 h, undifferentiated (und) SH-SY5Y cells, 24 h
[16] = Homo sapiens, SH-SY5Y, 24 h, differentiated (diff) SH-SY5Y cells, 24 h, read-out: ATP (IC50), ATP depletion
[17] = Homo sapiens, SH-SY5Y, 24 h, undifferentiated (und) SH-SY5Y cells, 24 h, read-out: ATP (IC50), ATP depletion
[18] = Homo sapiens, SH-SY5Y, both cell types, summary in abstract, read-out: IC50 values for cellular ATP depletion (in the range of)
[19] = undifferentiated and differentiated SH-SY5Y cells

Row | SMILES | Cytotoxicity, lowest concentration with significant toxic effect ([1]; Table S1, diff) [mM] | Cytotoxicity, lowest concentration with significant toxic effect ([1]; Table S1, und) [mM] | IC50 [1, 8] [mM] | IC50 [1, 9] [mM] | Concentration at which significantly membrane toxic ([1]; 24 h) [µM] | MMP, lowest concentration with significant toxic effect ([3]; Table S1, diff) [mM] | MMP, lowest concentration with significant toxic effect ([3]; Table S1, und) [mM] | Necrosis: starting concentration [4, 10] [µM] | O− production, lowest concentration with significant toxic effect ([5]; Table S1, und) [mM] | Concentration at which mitochondrial superoxide production started to increase ([5]; differentiated SH-SY5Y cells) | Concentration at which mitochondrial superoxide production started to increase ([5]; undifferentiated SH-SY5Y cells) [µM] | ATP depletion, lowest concentration with significant toxic effect ([7]; Table S1, und) [mM] | IC50 [7, 12] [mM] | Concentration at which intracellular ATP content started to decrease ([7]; differentiated cells, 24 h) | IC50 [7, 13] [mM] | Concentration at which intracellular ATP content started to decrease ([7]; undifferentiated cells, 24 h) [µM] | IC50 [1, 14] [mM] | Effect on oxidative metabolism ([6]; 24 h) | IC50 [7, 16] [mM] | IC50 [7, 17] [mM] | also measured
1 | CNC(C)C(=O)c1ccc(Cl)cc1 (stereo not drawn) [4-CMC, 4-chloromethcathinone] | 2 | 2 | > 2 | > 2 | 2000 | 2 | 0.5 | 2000 | 2 | 2000 µM | 2000 | 0.5 | 1.33 | 1000 µM | 1.43 | 500 | – | – | – | – | Abundance of cleaved caspase 3 [2]: increased the abundance of cleaved caspase 3; Effect on Δψm [3]: decreased the Δψm in a concentration-dependent manner; Apoptosis, lowest concentration with significant toxic effect ([4]; Table S1, diff): 1 mM; Apoptosis, lowest concentration with significant toxic effect ([4]; Table S1, und): 2 mM; Apoptosis: concentration reaching statistical significance [4, 10]: 1000 µM; Apoptosis: concentration reaching statistical significance [4, 11]: 2000 µM; Apoptosis: starting concentration [4, 11]: 1000 µM; O− production, lowest concentration with significant toxic effect ([5]; Table S1, diff): 2 mM; OCR, lowest concentration with significant toxic effect ([6]; Table S1, diff): 0.2 mM; OCR, lowest concentration with significant toxic effect ([6]; Table S1, und): 0.5 mM; Concentration reaching statistical significance for decrease of basal and FCCP-stimulated respiration ([6]; differentiated cells, 24 h): 200 µM; Concentration reaching statistical significance for decrease of basal and FCCP-stimulated respiration ([6]; undifferentiated cells, 24 h): 500 µM; ATP depletion, lowest concentration with significant toxic effect ([7]; Table S1, diff): 1 mM; IC50 ([7]; both cell types, summary in abstract, read-out: IC50 values for cellular ATP depletion (in the range of)): ~1.4 mM
2 | CC(N)Cc1ccc(F)cc1 (stereo not drawn) [4-FA, 4-fluoroamphetamine] | 2 | 2 | – | – | 2000 | 0.5 | 1 | 2000 | 2 | 2000 µM | 2000 | – | – | – | – | – | > 2 | did not affect the oxidative metabolism | 1.41 | 1.44 | IC50 [1, 15]: > 2 mM; Effect on Δψm [3]: decreased the Δψm in a concentration-dependent manner; Necrosis: starting concentration [4, 11]: 2000 µM; IC50 [7, 18]: ~1.4 mM
3 | CNC(C)C(=O)c1ccc(F)cc1 (stereo not drawn) [4-FMC, 4-fluoromethcathinone] | – | – | > 2 | > 2 | – | – | – | – | – | – | – | – | > 2 | did not significantly decrease the cellular ATP pool | > 2 | > 2000 | – | – | – | – | Membrane toxicity: no toxicity up to [1, 19]: > 2000 µM; Δψm: not toxic up to [3]: > 2000 µM; Basal and stimulated (maximal) respiration: no significant effect up to ([6]; both cell types, 24 h): > 1000 µM; Intracellular ATP content: no toxicity up to [7]: > 2000 µM
4 | CC(N)Cc1ccc(Cl)cc1 (stereo not drawn) [PCA, 4-Chloroamphetamine] | 0.2 | 0.5 | – | – | 500 | 0.2 | 0.5 | 100 | 0.5 | trend for an increase at 2000 µM | 500 | 0.2 | – | 500 µM | – | 200 | 0.77 | – | 0.39 | 0.42 | Concentration at which membrane toxicity started ([1]; differentiated cells, 24 h): 200 µM; Concentration starting to decrease Δψm ([3]; differentiated SH-SY5Y cells): 200 µM; Concentration starting to decrease Δψm ([3]; undifferentiated SH-SY5Y cells): 500 µM; Apoptosis, lowest concentration with significant toxic effect ([4]; Table S1, diff): 0.1 mM; Necrosis: concentration reaching statistical significance [4, 10]: 500 µM; Necrosis: concentration reaching statistical significance [4, 11]: 500 µM; Necrosis: starting concentration [4, 11]: 200 µM; O− production, lowest concentration with significant toxic effect ([5]; Table S1, diff): 2 mM; OCR, lowest concentration with significant toxic effect ([6]; Table S1, diff): 0.1 mM; OCR, lowest concentration with significant toxic effect ([6]; Table S1, und): 0.05 mM; Concentration reaching statistical significance for decrease of basal and FCCP-stimulated respiration ([6]; differentiated cells, 24 h): 100 µM; Concentration reaching statistical significance for decrease of basal and FCCP-stimulated respiration ([6]; undifferentiated cells, 24 h): 50 µM; IC50 [7, 18]: ~0.4 mM; ATP depletion, lowest concentration with significant toxic effect ([7]; Table S1, diff): 0.5 mM
5 | CC(N)Cc1ccccc1 (stereo not drawn) [amphetamine, Amphetamine] | – | 2 | – | – | 2000 | – | – | – | – | – | – | 2 | – | did not significantly decrease the cellular ATP pool | – | 1000 | > 2 | did not affect the oxidative metabolism | > 2 | > 2 | IC50 [1, 15]: > 2 mM; Δψm: not toxic up to [3]: > 2000 µM
6 | CNC(C)C(=O)c1ccccc1 (stereo not drawn) [methcathinone] | – | – | > 2 | > 2 | – | – | – | – | – | – | – | – | > 2 | did not significantly decrease the cellular ATP pool | > 2 | > 2000 | – | did not affect the oxidative metabolism | – | – | Cytotoxicity (membrane damage and/or ATP depletion): not cytotoxic up to [1, 19]: > 2 mM; Membrane toxicity: no toxicity up to [1, 19]: > 2000 µM; Δψm: not toxic up to [3]: > 2000 µM; Intracellular ATP content: no toxicity up to [7]: > 2000 µM
